According to publication PMC4336329 (PLoS ONE, 2015):
Out of some 310,000 compounds screened, about 14,000 (4.5%) showed an effect of 50% or more. Effects have a minus sign here. The list shows a part of the results.

Biological target: human ether-à-go-go-related gene (hERG) potassium channel (human, UniProt Q12809)
Assay: primary screen, population patch clamp on CHO cells stably expressing hERG
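Also: peak tail current of the secondary pulse compared with the same well before compound.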

Sequence of human ether-à-go-go-related gene (hERG) potassium channel (Q12809 whole entry, looked up): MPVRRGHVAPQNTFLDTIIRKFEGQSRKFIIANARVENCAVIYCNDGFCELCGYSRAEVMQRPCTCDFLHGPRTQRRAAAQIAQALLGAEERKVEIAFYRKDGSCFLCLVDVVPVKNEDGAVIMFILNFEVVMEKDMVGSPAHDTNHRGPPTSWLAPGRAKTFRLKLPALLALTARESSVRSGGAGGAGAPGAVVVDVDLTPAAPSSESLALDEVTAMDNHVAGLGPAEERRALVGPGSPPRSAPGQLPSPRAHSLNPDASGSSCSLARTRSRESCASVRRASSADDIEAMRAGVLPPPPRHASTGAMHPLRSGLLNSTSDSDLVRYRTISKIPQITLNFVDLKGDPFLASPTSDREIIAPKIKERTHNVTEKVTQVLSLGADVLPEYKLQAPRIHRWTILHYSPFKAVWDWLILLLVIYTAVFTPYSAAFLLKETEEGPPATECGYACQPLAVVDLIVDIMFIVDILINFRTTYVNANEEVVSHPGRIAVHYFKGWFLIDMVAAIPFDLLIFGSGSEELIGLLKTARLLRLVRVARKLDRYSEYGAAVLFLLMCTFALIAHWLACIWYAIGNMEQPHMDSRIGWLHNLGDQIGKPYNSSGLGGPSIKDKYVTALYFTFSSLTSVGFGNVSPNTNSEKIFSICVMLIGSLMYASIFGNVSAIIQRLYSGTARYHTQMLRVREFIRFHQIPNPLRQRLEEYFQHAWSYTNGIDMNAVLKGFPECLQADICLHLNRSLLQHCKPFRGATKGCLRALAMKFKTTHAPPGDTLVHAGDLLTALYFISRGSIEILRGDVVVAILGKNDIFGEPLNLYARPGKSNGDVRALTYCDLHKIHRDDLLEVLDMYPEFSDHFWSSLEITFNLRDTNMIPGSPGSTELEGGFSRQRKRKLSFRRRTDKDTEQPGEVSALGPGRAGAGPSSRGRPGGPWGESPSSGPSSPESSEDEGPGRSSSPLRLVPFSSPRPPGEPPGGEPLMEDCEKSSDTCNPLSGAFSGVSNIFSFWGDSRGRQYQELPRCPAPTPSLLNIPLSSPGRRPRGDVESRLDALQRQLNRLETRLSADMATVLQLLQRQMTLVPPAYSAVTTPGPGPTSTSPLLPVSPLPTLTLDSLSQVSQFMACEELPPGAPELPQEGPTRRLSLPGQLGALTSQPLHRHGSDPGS

SMILES	hERG current change (%, negative = inhibition) at 10uM [%]
CCC(=O)Oc1ccc2c(=O)c(-c3ccc4ccccc4n3)c(CC)oc2c1C	13.6
COc1ccccc1OCCn1cc(/C=N/NC(=O)c2ccncc2)c2ccccc21	-1.26
O=c1[nH]cnc2nc3n(c12)CCCCC3	3.06
CCN(CC)c1ccc(Nc2nc(Cl)ncc2Br)cc1	-22.5
CCC(=O)Nc1ccc2nc(C)n(CC(=O)Nc3ccccc3)c(=O)c2c1	-0.357
Cc1ccc(NC(=O)c2ccc(C(C)(C)C)cc2)cc1-n1cnnn1	11.7
O=C(Nc1ccccn1)c1cc2ccccc2o1	8.5
Cc1ccc(CNC(=O)c2sccc2-n2cccc2)cc1	-14.7
COC(=O)c1oc2ccccc2c1-n1cccc1	-3.71
CC1CCCCC1NC(=O)COC(=O)c1ccc2c(c1Cl)C(=O)c1ccccc1C2=O (centres unmarked)	13
Cc1ccc(-n2nnnc2-c2ccccc2Br)cc1	-37.8
Cc1noc(C)c1S(=O)(=O)N1CCCC(C(=O)Nc2nccs2)C1 (centres unmarked)	-13.6
Cc1cc(-c2nc3ccccc3c(=O)o2)ccc1[N+](=O)[O-]	12.5
Cc1ccccc1Nc1nc(N)nc(CSCC(=O)Nc2cccc(Br)c2)n1	-29.8
O=C(CCc1nnc2ccc(N3CCC4(CC3)OCCO4)nn12)NCc1ccc(F)cc1	6.39
Cc1csc(NC(=O)CSc2nc(C(C)C)nc3c2c(=O)n(C)c(=O)n3C)n1	-25.5
CN(C)c1nc(SCCOC(=O)Nc2ccccc2)nc(N(C)C)n1	-9.9
CCOc1ccc2c(c1)OC1(CCC(C)C1)CC2=O (centres unmarked)	0.218
O=C(COc1cccnc1[N+](=O)[O-])NCCc1ccc(F)cc1	-16.6
COc1cccc(C(=O)NC2CCCN(C3Cc4ccccc4C3)C2)c1OC (centres unmarked)	-41.7
CCCc1ccc(Oc2cn[nH]c2-c2ccc(O)c(C)c2O)cc1	2.48
Cc1cc(=O)[nH]c2c1cnn2Cc1ccccc1	3.72

SMILES	hERG current change (%, negative = inhibition) at 10uM [%]
COc1ccc(Cl)cc1C(=O)NC(=S)Nc1cc(-c2nc3ccccc3[nH]2)ccc1C	11.9
C/C(=N\NC(=O)Cc1cccn1C)c1ccc2ccccc2c1	16.8
O=C(O)c1cn(-c2ccccc2)nc1-c1cccnc1	-1.94
Cn1c(=O)c2c(nc(NCc3ccc4c(c3)OCO4)n2Cc2ccc(F)cc2)n(C)c1=O	-5.77
CCS(=O)(=O)c1ccc2oc(SCC(=O)c3ccco3)nc2c1	-5.55
O=C(NC1CCCC1)C(c1ccco1)N(C(=O)c1csnn1)c1ccccc1 (centres unmarked)	-3.12
CCn1c(=O)c(=O)[nH]c2cc(C(=O)N3CCN(c4ccccc4F)CC3)ccc21	17.2
COc1ccc(CCNC(=O)COc2ccc(S(=O)(=O)NC3CCCCC3)cc2Cl)cc1OC	-2.51
CC(NC(=O)C1CCN(S(=O)(=O)c2ccccc2)CC1)c1ccccc1 (centres unmarked)	9.25
COc1cc(/C=N/NC(=O)c2cccnc2)ccc1OC(=O)c1ccco1	-2.07
Cc1c(Cl)cccc1NC(=S)N1CCCCCC1	8.69
Cc1ccc2c(=O)cc(C(=O)NC3CCS(=O)(=O)C3)oc2c1C (centres unmarked)	16.5
O=C(NCCC1=CCCCC1)C(=O)NCC(c1ccco1)N1CCN(c2ccc(F)cc2)CC1 (centres unmarked)	9.38
COC(=O)c1sc(SC)c(-c2ccon2)c1C	-2.83
Cc1cccc(OCCOC(=O)c2ccc(F)c(S(=O)(=O)N3CCOCC3)c2)c1	-18.1
COC(=O)C1=C(c2ccc(S(C)(=O)=O)cc2)C[C@@H]2CC[C@H]1N2C(=O)NCc1ccccc1	-29.6
O=C(CCC(=O)N1CCc2ccccc2C1)N1CCN(S(=O)(=O)c2ccccc2)CC1	-23
COCCCNC(=S)Nc1c(C)cc(C)cc1C	7.19
N#Cc1nc(COc2ccccc2F)oc1N1CCCCCC1	-38.5
Cc1ccc(S(=O)(=O)Cc2ccc(C(=O)NC3CCCC3)o2)cc1	-4.55
Fc1ccc(NC(=S)Nc2cccc(Cl)c2)cc1	14.4
O=C(O)C1CCCCC1C(=O)Nc1cc(C(F)(F)F)ccc1Cl (centres unmarked)	4
